Paper PMC4336329 (PLoS ONE, 2015)
Among all 310,000 compounds or so, about 14,000 (4.5%) showed an effect of 50% or more. Effects have a minus sign here. The list shows a part of the results.

biological target: human ether-à-go-go-related gene (hERG) potassium channel (human, UniProt Q12809); test: primary screen, population patch clamp on CHO cells stably expressing hERG
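Further: peak tail current of the secondary pulse compared with the same well before compound.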

Chain of human ether-à-go-go-related gene (hERG) potassium channel (Q12809 whole entry, looked up): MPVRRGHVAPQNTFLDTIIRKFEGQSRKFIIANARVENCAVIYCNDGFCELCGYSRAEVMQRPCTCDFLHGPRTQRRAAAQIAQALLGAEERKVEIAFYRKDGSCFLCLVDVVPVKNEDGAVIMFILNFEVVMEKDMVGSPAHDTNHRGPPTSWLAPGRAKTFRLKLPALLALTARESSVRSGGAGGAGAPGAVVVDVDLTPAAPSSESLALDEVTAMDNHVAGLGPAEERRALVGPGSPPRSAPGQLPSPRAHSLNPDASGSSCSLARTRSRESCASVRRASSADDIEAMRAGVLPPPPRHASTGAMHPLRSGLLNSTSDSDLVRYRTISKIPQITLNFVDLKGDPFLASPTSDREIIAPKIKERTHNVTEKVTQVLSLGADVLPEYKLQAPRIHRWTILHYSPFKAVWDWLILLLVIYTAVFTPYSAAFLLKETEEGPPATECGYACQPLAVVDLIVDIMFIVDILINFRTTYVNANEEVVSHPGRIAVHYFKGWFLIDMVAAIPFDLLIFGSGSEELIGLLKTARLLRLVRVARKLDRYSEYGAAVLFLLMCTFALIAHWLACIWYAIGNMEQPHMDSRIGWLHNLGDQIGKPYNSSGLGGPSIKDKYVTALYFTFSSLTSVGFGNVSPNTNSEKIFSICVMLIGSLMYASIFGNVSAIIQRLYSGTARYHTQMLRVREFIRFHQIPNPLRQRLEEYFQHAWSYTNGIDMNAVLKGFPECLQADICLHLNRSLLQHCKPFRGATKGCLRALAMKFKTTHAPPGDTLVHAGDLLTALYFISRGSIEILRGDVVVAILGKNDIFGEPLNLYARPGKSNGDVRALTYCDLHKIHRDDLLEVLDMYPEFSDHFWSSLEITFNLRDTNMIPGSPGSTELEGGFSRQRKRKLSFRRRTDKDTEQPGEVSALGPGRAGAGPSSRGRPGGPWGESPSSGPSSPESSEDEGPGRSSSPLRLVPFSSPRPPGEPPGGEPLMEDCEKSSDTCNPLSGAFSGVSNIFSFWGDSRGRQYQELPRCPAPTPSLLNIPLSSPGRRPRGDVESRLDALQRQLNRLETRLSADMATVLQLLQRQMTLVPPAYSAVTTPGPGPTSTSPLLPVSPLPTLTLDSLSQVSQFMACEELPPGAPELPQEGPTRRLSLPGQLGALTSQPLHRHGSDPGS

| SMILES | hERG current change (%, negative = inhibition) at 10uM [%] |
| --- | --- |
| CCOc1cc(C(=O)NCCN2C(=O)S/C(=C\c3cccnc3)C2=O)cc(OCC)c1OCC | -1.8 |
| O=C(Cc1c(F)cccc1Cl)N1CCN(S(=O)(=O)c2cccs2)CC1 | 9.59 |
| COc1ccc(C(=O)NCC(=O)N2CCN(c3ccccc3)CC2)cc1 | -0.333 |
| O=C(COC(=O)c1ccccc1C(=O)N1CCN(c2ccccc2)CC1)NCc1ccccc1 | -58 |
| N#Cc1c(NC(=O)CN2CCN(S(=O)(=O)c3ccc4c(c3)OCCO4)CC2)sc2c1CCC2 | 7.11 |
| COc1ccc(NC(=S)Nc2cccc3cnccc23)cc1 | -21.2 |
| CCCC(=O)Nc1nc2ccc(NC(=O)c3cccnc3)cc2s1 | -1.66 |
| O=C(NNC(=O)c1ccccc1O)c1ccc(S(=O)(=O)Nc2ccccc2)cc1 | 6.6 |
| O=C(COCC(=O)Nc1cccc(C(F)(F)F)c1)Nc1cccc(C(F)(F)F)c1 | 38.3 |
| Cc1ccc(C(=O)Nc2nnc(-c3ccncc3)s2)o1 | 3.9 |
| Cc1onc(-c2ccccc2Cl)c1C(=O)N1CCc2ccccc2C1 | -18.2 |
| Cc1cc(F)ccc1S(=O)(=O)Nc1ccccc1C(=O)NCc1ccccn1 | -7.43 |
| O=C(C1CCCO1)N1CCN(C(=S)Nc2cccc(Cl)c2)CC1 (stereo not shown) | -8.74 |
| CCc1ccc(C(=O)N/N=C/c2ccc(Cl)cc2Cl)nc1 | -5.86 |
| O=C(COC(=O)c1ccccc1)Nc1ccc(Cl)cn1 | 18 |
| CCOC(=O)CSc1nc(C)c2cccc(C)c2n1 | -3.05 |
| Cc1ccc(NC(=O)[C@@H]2CCCN2S(=O)(=O)c2ccccc2C(F)(F)F)cc1S(=O)(=O)N1CCOCC1 | -21.4 |
| Clc1ccc(Cn2ncc3c(N4CCCCC4)ncnc32)cc1 | -14.4 |
| CCS(=O)(=O)C1=NSC2=NC(=O)/C(=C\c3ccc(OC(=O)c4ccco4)cc3)C(=N)N21 | 15 |
| COc1cc2c(=O)n(CCC(=O)NCC3CCCO3)c(=O)n(CC(=O)Nc3ccc(F)cc3)c2cc1OC (stereo not shown) | -16.1 |
| COc1ccc(N2CCN(c3cc(=O)n(Cc4ccc(F)cc4)c(=O)[nH]3)CC2)cc1 | -26 |
| Cc1ccc(NC(C)c2cc(Cl)ccc2O)cc1 (stereo not shown) | 18.5 |

| SMILES | hERG current change (%, negative = inhibition) at 10uM [%] |
| --- | --- |
| Cc1cc(C)n(C(=O)c2cccc(S(=O)(=O)N3CCCC3)c2)n1 | 6.46 |
| O=C(CC1NCCNC1=O)Nc1cc(Cl)cc(Cl)c1 (stereo not shown) | 6.48 |
| COc1ccc(C(=O)Oc2coc(CSc3nnc(NC(=O)c4cccs4)s3)cc2=O)cc1 | 24.2 |
| Cc1cc(NC(=O)CSc2nnc(-c3ccc(O)cc3)o2)no1 | -5.18 |
| CCCc1nc2n[nH]c(N)c2c2c1CCCC2 | 4.12 |
| CCOC(=O)c1c(C)c(C(=O)NCc2ccc3c(c2)OCO3)c(C)n1C | -8.33 |
| Cc1cc(C)cc(OCC(=O)N/N=C/c2ccccn2)c1 | -15.9 |
| COc1ccc(C(=O)N2CCCC(C(=O)O)C2)c2ccccc12 (stereo not shown) | 23.5 |
| COc1cc(C(=O)NCc2cc3ccccc3n2C)cc(OC)c1OC | 10.5 |
| CCCc1cc(C(=O)N2CCCN(C)CC2)cs1 | 0.455 |
| COc1ccc(CNC(=O)COC(=O)CC2CC3CCC2C3)cc1OC (stereo not shown) | -4.38 |
| Cc1ccc(Nc2c(-c3ccccc3O)nc3cnccn23)cc1 | 3.86 |
| Cc1ccc2nc(NCc3ccccc3)c(C=NCc3cccnc3)c(=O)n2c1 | 3.39 |
| CC(c1ccccc1F)n1cc(C(=O)Nc2ccc3nc[nH]c3c2)nn1 (stereo not shown) | 4.74 |
| CCOc1ccc(N(Cc2nnc3n2CCCCC3)C(=O)Nc2cccc(C)c2)cc1 | -24.2 |
| Cc1nc2cc(-c3cccc(F)c3)nn2c(C)c1CCC(=O)N1CCC2(CC1)OCCO2 | -37.5 |
| CCCN(C(=O)c1cc(S(=O)(=O)N2CCCCCC2)ccc1OC)C1CCS(=O)(=O)C1 (stereo not shown) | -15 |
| Clc1ccc2nc(N3CCN(c4ccccc4)CC3)sc2c1 | 12.7 |
| O=C(NNC(=S)Nc1ccccc1)C1CC1 | -6.92 |
| Cc1ccc(C)c(N(C)C(=O)c2coc(=O)c3ccccc23)c1 | -9.29 |
| COc1ccc(N2CCC(CNC(=O)Nc3cccc(OC)c3)C2)cc1 (stereo not shown) | -15.7 |
